In article PMC4336329 (PLoS ONE, 2015):
Screen size: about 310,000 compounds; about 14,000 (4.5%) showed an effect of 50% or more. Effects have a minus sign here. Some of the results follow.

The compounds below were run against human ether-à-go-go-related gene (hERG) potassium channel (human, UniProt Q12809) (assay: primary screen, population patch clamp on CHO cells stably expressing hERG).
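Further: peak tail current of the secondary pulse compared with the same well before compound.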

Sequence of human ether-à-go-go-related gene (hERG) potassium channel (Q12809 whole entry, looked up): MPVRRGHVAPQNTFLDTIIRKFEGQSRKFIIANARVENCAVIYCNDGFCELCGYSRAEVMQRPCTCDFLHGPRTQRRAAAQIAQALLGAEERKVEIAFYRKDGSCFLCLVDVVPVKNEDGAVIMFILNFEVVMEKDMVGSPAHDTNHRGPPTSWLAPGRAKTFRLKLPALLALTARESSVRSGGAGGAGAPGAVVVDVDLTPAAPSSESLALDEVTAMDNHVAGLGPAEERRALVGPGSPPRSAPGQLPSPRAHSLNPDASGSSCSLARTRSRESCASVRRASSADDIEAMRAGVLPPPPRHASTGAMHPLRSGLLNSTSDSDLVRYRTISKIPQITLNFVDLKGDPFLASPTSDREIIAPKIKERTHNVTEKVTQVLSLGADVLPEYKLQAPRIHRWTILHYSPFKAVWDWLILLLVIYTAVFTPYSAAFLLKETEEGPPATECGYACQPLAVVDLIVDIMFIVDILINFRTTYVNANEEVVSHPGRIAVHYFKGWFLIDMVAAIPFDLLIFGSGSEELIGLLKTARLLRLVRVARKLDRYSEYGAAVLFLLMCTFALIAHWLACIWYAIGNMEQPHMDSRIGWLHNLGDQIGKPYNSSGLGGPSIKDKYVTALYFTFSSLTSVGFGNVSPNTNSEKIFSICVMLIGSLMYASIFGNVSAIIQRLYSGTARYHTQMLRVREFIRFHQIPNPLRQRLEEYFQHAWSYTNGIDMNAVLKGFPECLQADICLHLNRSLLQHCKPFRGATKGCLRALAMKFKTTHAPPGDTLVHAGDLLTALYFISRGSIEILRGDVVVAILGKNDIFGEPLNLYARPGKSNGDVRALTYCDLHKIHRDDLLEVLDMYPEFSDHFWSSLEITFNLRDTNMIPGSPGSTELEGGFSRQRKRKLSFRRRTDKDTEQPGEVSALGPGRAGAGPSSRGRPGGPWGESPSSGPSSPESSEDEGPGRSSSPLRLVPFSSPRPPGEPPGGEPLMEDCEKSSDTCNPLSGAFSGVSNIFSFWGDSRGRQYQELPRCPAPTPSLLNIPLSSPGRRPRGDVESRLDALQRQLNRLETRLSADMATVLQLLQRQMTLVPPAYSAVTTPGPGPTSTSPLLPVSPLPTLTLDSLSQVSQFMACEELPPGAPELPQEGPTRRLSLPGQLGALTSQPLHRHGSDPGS

Structure (SMILES) | hERG current change (%, negative = inhibition) at 10uM
O=C(Cn1nc(-c2ccccc2)oc1=O)OCC(=O)c1ccc(F)c(F)c1 | 3.18%
Clc1ccc(-c2cn(-c3ccc(Cl)cc3)c3[n+]2CCCCC3)cc1.[Br-] | -52.7%
O=C(NCCN1CCOCC1)c1ccc([N+](=O)[O-])cc1[N+](=O)[O-] | -0.151%
Cc1cc(Nc2cccc(Br)c2)c2ccccc2n1 | -86.2%
CC(Oc1ccc(Cl)cc1Cl)C(=O)Nc1ccncc1 (stereo not shown) | -43.9%
CCOC(=O)C1CCN(C(=O)c2cc3c(-c4ccc(OC)c(OC)c4)nn(C)c3s2)CC1 | -17%
Oc1cccc(-c2nc3ccccc3s2)c1 | -3.6%
COC(=O)c1sccc1N/N=C/c1cccc(Oc2ccccc2)c1 | -7.09%
CC1(c2ccc3c(c2)OCO3)NC(=O)N(CC(=O)Nc2ccc(N3CCOCC3)cc2)C1=O (stereo not shown) | 14.1%
O=C(c1ccc(Cl)cc1[N+](=O)[O-])N1CCc2ccccc2C1 | 4.37%
N#CC1=C(N)Oc2nc(-c3ccccc3)[nH]c2C1c1cccnc1 (stereo not shown) | -1.47%
CN(C1CCCCC1)C(CNS(=O)(=O)c1ccc(Cl)cc1)c1ccccc1 (stereo not shown) | 11.9%
O=C1NCCCC1C(=O)N/N=C/c1ccccc1O (stereo not shown) | 9.69%
O=C(c1ccccc1)n1c(=O)cc[nH]c1=O | 12.1%
COc1ccc(Cl)cc1NC(=O)CSc1nnc(COc2ccccc2)n1N | -5.96%
CCCCN1C(=S)NC[C@@H]1Cc1cccc2ccccc12 | 1.69%
COc1ccc(/C=N/Nc2nc(-c3cccc(S(=O)(=O)N4CCCC4)c3)cs2)c(OC)c1 | -10.2%
Cc1ccccc1-c1oc(C)c(C)[n+]1[O-].Cl | 6.03%
CCOc1ccc(N(C(=O)c2cc3ccccc3oc2=O)C2C=CS(=O)(=O)C2)cc1 (stereo not shown) | -2.96%
CCCCNC(=O)c1onc(CSc2ccc(F)cc2)c1C(=O)O | 4.82%
Cc1ccc(CNC(=O)c2cccc(S(C)(=O)=O)c2)cc1 | -0.651%
Oc1csc(Cc2nc(-c3ccccc3F)cs2)n1 | 18.9%

Structure (SMILES) | hERG current change (%, negative = inhibition) at 10uM
O=C(Nc1cccc(C(=O)O)c1)/C(=C\c1ccc2c(c1)OCO2)NC(=O)c1ccco1 | 24.3%
CCSc1nnc(-c2ccccc2NC(C)=O)c(=O)[nH]1 | -15.5%
CCCCN(C)CC(O)Cn1cc(/C=C/C(=O)c2ccc(C)cc2)c2ccccc21 (stereo not shown) | -41.4%
COc1ccc(/C(C)=N\NC(=O)c2ccc(-c3ccccc3)cc2)c(F)c1 | 2.79%
C=CCOc1ccc(-c2nc3c(c(=O)[nH]c(=O)n3Cc3ccccc3)n2CCCOC)cc1 | 5.96%
Cc1ccccc1/C=N/NC(=O)c1sccc1C | 3.39%
CN1CCN(S(=O)(=O)c2ccc(NC(=S)NC(=O)C(C)(C)C)cc2)CC1 | 1.03%
CCCCc1ccc(NC(=O)CSc2nc(=O)n(CCCN3CCOCC3)c3c2CCC3)cc1 | -64.5%
Cc1ccc(S(=O)(=O)N2CCN(C(=O)c3n[nH]c(=O)c4ccccc34)CC2)cc1 | -43.5%
CC(=O)N1CCN(C(=O)C2(NC(=O)Nc3ccc(C)cc3)CCCCC2)CC1 | 17.1%
COc1cc(C(=O)O[C@H]2C/C(C)=C/CC[C@]3(C)O[C@@H]3C(O)C2C(C)C)cc(OC)c1OC (stereo partly shown) | 10.3%
S=C(NCc1cccs1)Nc1ccc(Cl)cc1 | 9.4%
O=C(Nc1cccc(C(F)(F)F)c1)C(Sc1n[nH]c(=O)[nH]c1=O)c1ccccc1 (stereo not shown) | -4.05%
COc1cccc(CN2CCNC(=O)C2CC(=O)NCCn2nc(C)cc2C)c1OC (stereo not shown) | 13.7%
Nc1ccc2nc(CCCCc3nc4ccccc4[nH]3)[nH]c2c1 | 10.5%
CCc1noc(C)c1C(=O)Nc1nc(-c2cc(C)ccc2C)c(C)s1 | 16.7%
COC(=O)[C@@H](Cc1c[nH]c2ccccc12)NC(=O)CCC(=O)c1ccc(F)cc1 | 7.13%
CCOc1ccc(C(C)NC(=O)c2cc(=O)[nH]c3ccccc23)cc1OCC (stereo not shown) | 23.3%
c1ccc(NC2=NCCCCS2)cc1 | -6.37%
COc1cccc(CNc2nc3nc(C)cc(=O)n3[nH]2)c1 | -3.91%
CS(=O)(=O)CCC(C(=O)OCC(=O)c1ccc(Cl)cc1)N1C(=O)c2ccccc2C1=O (stereo not shown) | -19.1%
O=C(/C=C\c1ccco1)c1ccc(NC(=O)c2ccco2)cc1 | 14.2%

Structure (SMILES) | hERG current change (%, negative = inhibition) at 10uM
CN(C)CCN1CC(O)=C(c2nc3ccccc3s2)C1=N | -13.7%
O=C(NN1CC(C(=O)OCc2ccc(Cl)cc2Cl)CC1=O)c1ccccc1 (stereo not shown) | -16.5%
COc1ccc(NC(=O)C(=O)NCCO)cc1Cl | 13.2%
CCOc1ccc(NC(=O)CN(C)C(=O)CCCn2c(=O)oc3ccccc32)cc1OCC | -36.7%
CN1CCN(c2ccccc2NC(=O)c2cccc([N+](=O)[O-])c2)CC1 | -80.1%
COc1ccc(CCN(C)C(=O)c2cc(-c3ccc(C)cc3)nc3ccccc23)cc1OC | -26.7%
C=CCn1c(SCC(=O)Nc2cc(C)on2)nc2c([nH]c3ccccc32)c1=O | 9.49%
COc1ccc(S(=O)(=O)N(C)C)cc1NC(=O)CSc1nncs1 | 35.5%
Cc1ccc(C(=O)OCC(=O)Nc2sc3c(c2C#N)CCCC3)cc1NC(=O)c1ccco1 | 2.78%
CC(=O)CC[C@@H](C)O[C@@H]1OC(C)[C@H](O)CC1O (stereo partly shown) | 20.2%
CC(C)CNC(=O)NC1C(NC(=O)NCC(C)C)N(C)C(=O)N1C (stereo not shown) | 3.82%
CN(CCC#N)C(=O)COC(=O)c1cccnc1Nc1ccccc1F | -13.8%
O=C(O)C1CCCN(S(=O)(=O)c2ccccc2)C1 (stereo not shown) | 18.3%
Cc1nc2ccccc2nc(C)c1=NOCc1cccc(F)c1 | 2.12%
CC(C)c1nnc(NC(=O)C2CCCN2S(=O)(=O)c2ccc(Cl)cc2)s1 (stereo not shown) | 7.71%
COc1cc(N=c2c([N+](=O)[O-])nn(-c3ccc4c(c3)OCCO4)n2O)cc(OC)c1 | -0.72%
CCOC(=O)c1ccccc1NC(=O)COc1ccccc1 | 7.31%
Cc1cc(-n2c(C)cc(C(=O)CN3C(=O)NC4(CCCCC4)C3=O)c2C)no1 | -21.1%
CCOC(=O)COn1c(-n2nc(C)cc2C)nc2ccccc2c1=O | 0.487%
Cc1ccc(O)c(C)c1 | 17.2%
COc1ccc(OC)c(NC(=O)C2C3CC4OC(=O)C2C4C3)c1 (stereo not shown) | 11.2%
Cc1ccc(NC(=O)c2ccc3c(c2)C(=O)N(Cc2cccnc2)C3=O)c(C)c1 | 16.6%

Structure (SMILES) | hERG current change (%, negative = inhibition) at 10uM
COCCCNC(=O)CN(c1cccc(Cl)c1C)S(C)(=O)=O | 1.39%
Fc1ccc(Sc2ccccc2CNC2=NCCN2)cc1.I | -16%
Cc1cc(S(=O)(=O)N2CCN=C2c2ccccc2)ccc1F | 7.23%
COc1ccc(NC(=O)C(C)N=C2NS(=O)(=O)c3ccccc32)cc1S(N)(=O)=O (stereo not shown) | -2.12%
O=C(O)C/C(=C\c1cc2c(cc1Br)OCO2)c1nc2ccccc2s1 | 6.44%
FC(F)Oc1ccc(NC(=S)NC2CCSc3ccccc32)cc1 (stereo not shown) | -2.01%
COc1cc(C(=O)N/C(=C\c2cn(C)c3ccccc23)C(=O)N2CCOCC2)cc(OC)c1OC | 11.7%
COc1ccc(C2C3=C(CC(C)(C)CC3=O)Oc3ncn(CCCn4ccnc4)c(=N)c32)cc1 (stereo not shown) | -16.6%
COc1ccc(CNc2nc3ccccc3n2CCN2CCOCC2)cc1 | -64.6%
CCc1ccccc1N1CC23C=CC(O2)C(C(=O)OC)C3C1=O (stereo not shown) | 14.5%
Fc1ccc(CNC(=S)NC2CCCCC2)cc1 | -19.9%
CC(C)=C1Cc2ccccc2C1=O | 5.59%
CC(C)NS(=O)(=O)c1ccc(OCC(=O)Nc2ccc(F)cc2)cc1 | 14.6%
Cn1c(O)c(C=NCCN2CCOCC2)c(=O)n(C)c1=S | -1.85%
O=C(/C=C/c1ccccc1[N+](=O)[O-])NCCCn1ccnc1 | 2.43%
CC1CC(C)CN(CCCCOc2ccc([N+](=O)[O-])cc2)C1.O=C(O)C(=O)O (stereo not shown) | -78.8%
O=[N+]([O-])c1ccc(Cl)cc1N1CCCC1 | 0.717%
Cc1ccccc1-n1c(C)nc2sccc2c1=O | -2.18%
Cc1ccc(Cn2nnc3c(=O)[nH]c(C4CCN(S(=O)(=O)/C=C/c5ccccc5)CC4)nc32)cc1 | -9.62%
COc1ccccc1CC(=O)NNC(=O)c1cccs1 | 26.2%
Cc1nc2ccccc2c(=O)n1NC(=O)c1cccnc1Cl | 26.9%
COc1cc(C#N)c(NS(=O)(=O)c2ccc3[nH]c(=O)sc3c2)cc1OC | 16.9%
